Reference: PubChem BioAssay (NCI)
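Assay format: 96-well plates, 48-hour exposure. The concentration for full growth arrest is given as TGI.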 For part of its entries the source gives two or more results. They are shown here; other results are not. An entry can have further records. A record mostly stands for its own series of concentrations, not given here; some values may only mark the edge of a range.

How the values were obtained:
Test in all cases: inhibition of tumour cell growth, NCI panel, 48 h
KM12 colon = tested on: KM12 colon
HCT-116 colon = tested on: HCT-116 colon
A498 renal = tested on: A498 renal
NCI-H226 lung = tested on: NCI-H226 lung
OVCAR-8 ovarian = tested on: OVCAR-8 ovarian
HCT-15 colon = tested on: HCT-15 colon
HCC-2998 colon = tested on: HCC-2998 colon
NCI/ADR-RES ovarian = tested on: NCI/ADR-RES ovarian
MALME-3M melanoma = tested on: MALME-3M melanoma
SF-295 CNS = tested on: SF-295 CNS
OVCAR-3 ovarian = tested on: OVCAR-3 ovarian
KM20L2 colon = tested on: KM20L2 colon
NCI-H460 lung = tested on: NCI-H460 lung

Structure (SMILES) | TGI (KM12 colon) | TGI (HCT-116 colon) | TGI (A498 renal) | TGI (NCI-H226 lung) | TGI (OVCAR-8 ovarian) | TGI (HCT-15 colon) | TGI (HCC-2998 colon) | TGI (NCI/ADR-RES ovarian) | TGI (MALME-3M melanoma) | TGI (SF-295 CNS) | TGI (OVCAR-3 ovarian) | TGI (KM20L2 colon) | TGI (NCI-H460 lung)
COC(=O)c1cc2c(cc1O)[C@@H](NC(C)=O)CCc1cc(OC)c(OC)c(OC)c1-2 | 98 nM and > 100 µM | 1.26 µM and > 100 µM | 8.34 µM and > 100 µM | 82.9 nM and > 100 µM | 195 nM and > 100 µM | 544 nM and > 100 µM | 400 nM and > 100 µM | 282 nM and > 100 µM | 395 nM and > 100 µM |  |  |  | 
CCOC(=O)Oc1c(OC)cc(C(=O)NC2CCc3cc(OC)c(OC)c(OC)c3-c3ccc(SC)c(=O)cc32)cc1OC (centres undefined) | 208 nM and 8.64 µM |  |  |  |  |  |  |  |  | 671 nM and 46 µM | 74.3 nM and < 7 nM | 284 nM and 24.3 nM | 904 nM and 14.2 µM
